From the CheMixHub viscosity set
Several values for one entry are separate records, joined by “and”; a condition that tells them apart may be missing. Identical values can stand only once. ± gives the uncertainty stated by the source. This continues a long series; more values of the same kind are listed elsewhere.

Assay: xn = mol fraction of the nth substance listed

CO + O
Details	viscosity
293.15 K, 101 kPa, x1 = 0.059	1.253 ± 0.014 mPa·s
293.15 K, 101 kPa, x1 = 0.19	1.68 ± 0.018 mPa·s
293.15 K, 101 kPa, x1 = 0.27	1.77 ± 0.019 mPa·s
293.15 K, 101 kPa, x1 = 0.36	1.798 ± 0.019 mPa·s
293.15 K, 101 kPa, x1 = 0.46	1.681 ± 0.018 mPa·s
293.15 K, 101 kPa, x1 = 0.57	1.513 ± 0.015 mPa·s
293.15 K, 101 kPa, x1 = 0.69	1.192 ± 0.012 mPa·s
293.15 K, 101 kPa, x1 = 0.83	0.874 ± 0.009 mPa·s
293.15 K, 101.33 kPa, x1 = 0.0588	1.338 ± 0.013 mPa·s
293.15 K, 101.33 kPa, x1 = 0.123	1.639 ± 0.016 mPa·s
293.15 K, 101.33 kPa, x1 = 0.194	1.829 ± 0.018 mPa·s
293.15 K, 101.33 kPa, x1 = 0.232	1.876 ± 0.019 mPa·s
293.15 K, 101.33 kPa, x1 = 0.25	1.89 ± 0.019 mPa·s
293.15 K, 101.33 kPa, x1 = 0.273	1.881 ± 0.019 mPa·s
293.15 K, 101.33 kPa, x1 = 0.458	1.629 ± 0.016 mPa·s
293.15 K, 101.33 kPa, x1 = 0.692	1.142 ± 0.011 mPa·s
298.15 K, 100 kPa, x1 = 0.159	1.501 ± 0.092 mPa·s
298.15 K, 100 kPa, x1 = 0.2474	1.577 ± 0.064 mPa·s
298.15 K, 100 kPa, x1 = 0.25	1.581 ± 0.018 mPa·s
298.15 K, 100 kPa, x1 = 0.3	1.575 ± 0.018 mPa·s
298.15 K, 100 kPa, x1 = 0.306	1.636 ± 0.1 mPa·s
298.15 K, 100 kPa, x1 = 0.3642	1.524 ± 0.062 mPa·s
298.15 K, 100 kPa, x1 = 0.5	1.325 ± 0.015 mPa·s
298.15 K, 100 kPa, x1 = 0.6519	1.061 ± 0.043 mPa·s
298.15 K, 100 kPa, x1 = 0.75	0.9031 ± 0.0097 mPa·s
298.15 K, 100 kPa, x1 = 0.8031	0.827 ± 0.034 mPa·s
298.15 K, 101 kPa, x1 = 0.0574	1.172 ± 0.021 mPa·s
298.15 K, 101 kPa, x1 = 0.059	1.098 ± 0.012 mPa·s
298.15 K, 101 kPa, x1 = 0.0813	1.255 ± 0.026 mPa·s
298.15 K, 101 kPa, x1 = 0.1233	1.419 ± 0.021 mPa·s
298.15 K, 101 kPa, x1 = 0.1282	1.247 ± 0.034 mPa·s
298.15 K, 101 kPa, x1 = 0.19	1.444 ± 0.016 mPa·s
298.15 K, 101 kPa, x1 = 0.1942	1.582 ± 0.022 mPa·s
298.15 K, 101 kPa, x1 = 0.2247	1.624 ± 0.022 mPa·s
298.15 K, 101 kPa, x1 = 0.2541	1.66 ± 0.022 mPa·s
298.15 K, 101 kPa, x1 = 0.27	1.502 ± 0.016 mPa·s
298.15 K, 101 kPa, x1 = 0.2726	1.671 ± 0.022 mPa·s
298.15 K, 101 kPa, x1 = 0.285	1.624 ± 0.034 mPa·s
298.15 K, 101 kPa, x1 = 0.2948	1.426 ± 0.038 mPa·s
298.15 K, 101 kPa, x1 = 0.3578	1.425 ± 0.038 mPa·s
298.15 K, 101 kPa, x1 = 0.3599	1.576 ± 0.022 mPa·s
298.15 K, 101 kPa, x1 = 0.36	1.572 ± 0.017 mPa·s
298.15 K, 101 kPa, x1 = 0.457	1.426 ± 0.021 mPa·s
298.15 K, 101 kPa, x1 = 0.46	1.409 ± 0.0086 mPa·s
298.15 K, 101 kPa, x1 = 0.525	1.351 ± 0.029 mPa·s
298.15 K, 101 kPa, x1 = 0.5671	1.234 ± 0.021 mPa·s
298.15 K, 101 kPa, x1 = 0.57	1.185 ± 0.0076 mPa·s and 1.339 ± 0.014 mPa·s
298.15 K, 101 kPa, x1 = 0.639	1.159 ± 0.025 mPa·s
298.15 K, 101 kPa, x1 = 0.69	1.004 ± 0.0063 mPa·s
298.15 K, 101 kPa, x1 = 0.6926	1.024 ± 0.021 mPa·s
298.15 K, 101 kPa, x1 = 0.756	0.889 ± 0.019 mPa·s
298.15 K, 101 kPa, x1 = 0.816	0.881 ± 0.019 mPa·s and 0.803 ± 0.017 mPa·s
298.15 K, 101 kPa, x1 = 0.83	0.7619 ± 0.0055 mPa·s and 0.805 ± 0.008 mPa·s
298.15 K, 101 kPa, x1 = 0.8345	0.7885 ± 0.021 mPa·s
298.15 K, 101 kPa, x1 = 0.847	0.761 ± 0.016 mPa·s
298.15 K, 101 kPa, x1 = 0.899	0.755 ± 0.016 mPa·s
298.15 K, 101 kPa, x1 = 0.907	0.681 ± 0.015 mPa·s
298.15 K, 101 kPa, x1 = 0.964	0.596 ± 0.013 mPa·s
298.15 K, 101.33 kPa, x1 = 0.0625	1.162 ± 0.023 mPa·s
298.15 K, 101.33 kPa, x1 = 0.1999	1.49 ± 0.03 mPa·s
298.15 K, 101.33 kPa, x1 = 0.2499	1.585 ± 0.032 mPa·s
298.15 K, 101.33 kPa, x1 = 0.3332	1.558 ± 0.031 mPa·s
298.15 K, 101.33 kPa, x1 = 0.6666	1.06 ± 0.021 mPa·s
303.15 K, 101 kPa, x1 = 0.024	0.8816 ± 0.023 mPa·s
303.15 K, 101 kPa, x1 = 0.059	0.982 ± 0.01 mPa·s
303.15 K, 101 kPa, x1 = 0.0597	0.991 ± 0.01 mPa·s
303.15 K, 101 kPa, x1 = 0.0927	1.105 ± 0.029 mPa·s
303.15 K, 101 kPa, x1 = 0.12	1.145 ± 0.012 mPa·s
303.15 K, 101 kPa, x1 = 0.128	1.215 ± 0.012 mPa·s
303.15 K, 101 kPa, x1 = 0.1662	1.281 ± 0.034 mPa·s
303.15 K, 101 kPa, x1 = 0.19	1.257 ± 0.013 mPa·s
303.15 K, 101 kPa, x1 = 0.1986	1.324 ± 0.035 mPa·s
303.15 K, 101 kPa, x1 = 0.2086	1.349 ± 0.013 mPa·s
303.15 K, 101 kPa, x1 = 0.2491	1.358 ± 0.036 mPa·s
303.15 K, 101 kPa, x1 = 0.27	1.329 ± 0.014 mPa·s
303.15 K, 101 kPa, x1 = 0.2841	1.358 ± 0.036 mPa·s
303.15 K, 101 kPa, x1 = 0.3041	1.364 ± 0.013 mPa·s
303.15 K, 101 kPa, x1 = 0.3084	1.354 ± 0.036 mPa·s
303.15 K, 101 kPa, x1 = 0.36	1.353 ± 0.014 mPa·s
303.15 K, 101 kPa, x1 = 0.3673	1.321 ± 0.035 mPa·s
303.15 K, 101 kPa, x1 = 0.4203	1.232 ± 0.012 mPa·s
303.15 K, 101 kPa, x1 = 0.46	1.269 ± 0.013 mPa·s
303.15 K, 101 kPa, x1 = 0.4752	1.199 ± 0.032 mPa·s
303.15 K, 101 kPa, x1 = 0.5235	1.141 ± 0.03 mPa·s
303.15 K, 101 kPa, x1 = 0.5657	1.084 ± 0.0099 mPa·s
303.15 K, 101 kPa, x1 = 0.57	1.143 ± 0.0072 mPa·s and 1.184 ± 0.012 mPa·s
303.15 K, 101 kPa, x1 = 0.6735	0.9252 ± 0.025 mPa·s
303.15 K, 101 kPa, x1 = 0.69	0.9634 ± 0.0062 mPa·s and 0.964 ± 0.01 mPa·s
303.15 K, 101 kPa, x1 = 0.7522	0.8309 ± 0.0078 mPa·s
303.15 K, 101 kPa, x1 = 0.8172	0.7361 ± 0.019 mPa·s
303.15 K, 101 kPa, x1 = 0.83	0.7112 ± 0.005 mPa·s and 0.726 ± 0.008 mPa·s
303.15 K, 101 kPa, x1 = 0.92	0.6056 ± 0.016 mPa·s
303.15 K, 101.33 kPa, x1 = 0.0464	0.9945 ± 0.012 mPa·s
303.15 K, 101.33 kPa, x1 = 0.0588	1.056 ± 0.011 mPa·s
303.15 K, 101.33 kPa, x1 = 0.1119	1.133 ± 0.0079 mPa·s
303.15 K, 101.33 kPa, x1 = 0.123	1.24 ± 0.012 mPa·s
303.15 K, 101.33 kPa, x1 = 0.1593	1.285 ± 0.014 mPa·s
303.15 K, 101.33 kPa, x1 = 0.194	1.378 ± 0.014 mPa·s
303.15 K, 101.33 kPa, x1 = 0.2274	1.379 ± 0.015 mPa·s
303.15 K, 101.33 kPa, x1 = 0.273	1.417 ± 0.014 mPa·s
303.15 K, 101.33 kPa, x1 = 0.2752	1.304 ± 0.0091 mPa·s
303.15 K, 101.33 kPa, x1 = 0.3063	1.445 ± 0.016 mPa·s
303.15 K, 101.33 kPa, x1 = 0.36	1.378 ± 0.014 mPa·s
303.15 K, 101.33 kPa, x1 = 0.3984	1.356 ± 0.016 mPa·s
303.15 K, 101.33 kPa, x1 = 0.458	1.273 ± 0.013 mPa·s
303.15 K, 101.33 kPa, x1 = 0.4607	1.213 ± 0.0085 mPa·s
303.15 K, 101.33 kPa, x1 = 0.5075	1.216 ± 0.017 mPa·s
303.15 K, 101.33 kPa, x1 = 0.6385	0.9883 ± 0.0075 mPa·s
303.15 K, 101.33 kPa, x1 = 0.692	0.933 ± 0.0093 mPa·s
303.15 K, 101.33 kPa, x1 = 0.6981	0.927 ± 0.0065 mPa·s
303.15 K, 101.33 kPa, x1 = 0.7989	0.7364 ± 0.0059 mPa·s
303.15 K, 101.33 kPa, x1 = 0.8322	0.746 ± 0.0052 mPa·s
303.16 K, 101.33 kPa, x1 = 0.0583	1.013 ± 0.002 mPa·s
303.16 K, 101.33 kPa, x1 = 0.1229	1.209 ± 0.002 mPa·s
303.16 K, 101.33 kPa, x1 = 0.2719	1.384 ± 0.002 mPa·s
303.16 K, 101.33 kPa, x1 = 0.4571	1.238 ± 0.002 mPa·s
303.16 K, 101.33 kPa, x1 = 0.5663	1.091 ± 0.002 mPa·s
303.16 K, 101.33 kPa, x1 = 0.6913	0.913 ± 0.002 mPa·s
303.16 K, 101.33 kPa, x1 = 0.8341	0.717 ± 0.002 mPa·s
308.15 K, 100 kPa, x1 = 0.047	0.868 ± 0.054 mPa·s
308.15 K, 100 kPa, x1 = 0.159	1.181 ± 0.074 mPa·s
308.15 K, 100 kPa, x1 = 0.306	1.236 ± 0.077 mPa·s
308.15 K, 101 kPa, x1 = 0.059	0.875 ± 0.009 mPa·s
308.15 K, 101 kPa, x1 = 0.0597	0.887 ± 0.0093 mPa·s
308.15 K, 101 kPa, x1 = 0.12	1.009 ± 0.011 mPa·s
308.15 K, 101 kPa, x1 = 0.128	1.08 ± 0.011 mPa·s
308.15 K, 101 kPa, x1 = 0.19	1.111 ± 0.012 mPa·s
308.15 K, 101 kPa, x1 = 0.27	1.157 ± 0.013 mPa·s
308.15 K, 101 kPa, x1 = 0.3041	1.21 ± 0.012 mPa·s
308.15 K, 101 kPa, x1 = 0.4203	1.099 ± 0.011 mPa·s
308.15 K, 101 kPa, x1 = 0.46	1.154 ± 0.012 mPa·s
308.15 K, 101 kPa, x1 = 0.5657	0.9867 ± 0.0095 mPa·s
308.15 K, 101 kPa, x1 = 0.57	1.058 ± 0.011 mPa·s
